From PubChem BioAssay AID894 (National Center for Advancing Translational Sciences (NCATS), 2007)
The whole screen tested about 150,000 compounds, of which about 6,500 (4.3%) were called active. The inconclusive results got no clear call from the source; some entries with a clear call stand among them for comparison. The call rests on the fitted dose curve; in most records, active means well fitted inhibition curve with a large enough effect (not every such curve was filed as active); inconclusive means small, poorly fitted or top-dose-only effect, or another doubt; inactive means no such curve, though single readings can be large or run the other way. Potencies of inconclusive entries are left out as doubtful fits.

target: 15-hydroxyprostaglandin dehydrogenase [NAD(+)] (Homo sapiens) (UniProt P15428); experiment: qHTS Assay for Inhibitors of HPGD (15-Hydroxyprostaglandin Dehydrogenase); settings: purified HPGD, NADH fluorescence kinetic, PGE2 substrate; activity change, negative = inhibition: active compounds read low
Chain of UniProt P15428 (P15428 whole entry, looked up): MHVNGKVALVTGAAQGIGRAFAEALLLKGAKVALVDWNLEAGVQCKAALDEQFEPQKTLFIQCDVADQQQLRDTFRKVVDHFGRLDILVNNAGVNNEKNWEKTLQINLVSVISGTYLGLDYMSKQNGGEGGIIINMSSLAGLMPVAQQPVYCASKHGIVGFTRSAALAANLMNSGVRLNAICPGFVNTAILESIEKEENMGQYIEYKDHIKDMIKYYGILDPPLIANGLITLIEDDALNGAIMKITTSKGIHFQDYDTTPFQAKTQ
Outline: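 20 nM HPGD preincubated 15 min at room temperature with compound in 50 mM Tris-HCl pH 8, 0.01% Tween 20. Started with 1 mM NAD+ and 30 uM prostaglandin E2; NADH fluorescence (360/450 nm) read 5 times over 30-s intervals, last minus first.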
On the % scale 0 is the no-effect control and ±100 the full control effect; potency means the concentration at half of the fitted maximal effect; tags describe the fitted curve by direction and shape.

Row | SMILES | activity change, negative = inhibition | Potency
1 | O=C(Nc1ccc(C(=O)O)cc1)Nc1cccc([N+](=O)[O-])c1 | inactive: -6.63% | –
2 | COCCNC(=O)C1CCN(S(=O)(=O)c2ccccc2)CC1 | – | active: 25.1 µM
3 | COc1ccc2c(c1)CC/C(=C\C=C\c1ccccc1OC)C2=O | – | inconclusive [inhibitor, full curve]
4 | Nc1nc(CN2CCN(c3ccccc3)CC2)nc(N2CCCc3ccccc32)n1 | inactive: -6.11% | –
5 | Cc1c(C(=O)Nc2ccncc2)sc2nc(-c3ccc(F)cc3)cn12 | – | inconclusive [inhibitor, single point]
6 | C=CCSc1nc(N)c(C(=O)Nc2ccccc2OC)cc1C(=O)Nc1ccccc1 | – | inconclusive [inhibitor, single point]
7 | Cc1ccc2cc3cc(C(=O)N(CC(=O)NC4CCCC4)c4cccc(C)c4C)sc3nc2c1 | – | inconclusive [inhibitor, partial curve]
8 | COC(=O)N1CCC2(CC1)CCN(c1ccccc1)CC2 | inactive: -2.19% | –
9 | COC(=O)C1=C(C)NC(C)=C(C(=O)OCCN(C)Cc2ccccc2)[C@H]1c1cccc([N+](=O)[O-])c1 | inactive: -3.8% | –
10 | CCCCCCN(CCCCCC)C(=O)Cc1c(-c2ccc(Cl)cc2)[nH]c2ccc(Cl)cc12 | – | inconclusive [inhibitor, partial curve]
11 | Cc1occc1C(=O)Nc1cccc(C(=O)NCc2ccccc2)c1 | – | active: 22.4 µM
12 | O=C(N/N=C/c1ccc(OCC(=O)N2CCCCC2)cc1)c1ccccc1O | – | active: 22.4 µM
13 | C[C@H]1C(O)[C@@]23CCC4C5(C=[N+](CCO)C[C@]4(C)CCC5)C2C[C@@H]1C3 (some centres not stated) | inactive: -3.18% | –
14 | Cn1c(SCC(=O)Nc2ccc3nc(SCC(=O)NC4CC4)sc3c2)nnc1-c1ccccc1 | – | active: 3.55 µM
15 | COc1ccc(C2C3=C(CC(C)(C)CC3=O)Nc3n[nH]c(C)c32)cc1 (configuration not stated) | – | inconclusive [inhibitor, partial curve]
16 | O=C(CC1SC(=Nc2ccccc2)N(Cc2ccccn2)C1=O)Nc1ccc(Br)cc1 (configuration not stated) | – | inconclusive [inhibitor, partial curve]
17 | CC(C)Cc1cc(C(=O)Nc2cc(Cl)ccc2Cl)no1 | – | active: 14.1 µM
18 | CCOC(=O)c1cnc2cc(-c3ccc(C)cc3)nn2c1-c1ccccc1 | – | inconclusive [inhibitor, partial curve]
19 | CCOC(=O)C1CCN(C(=O)CSc2ccc(Cl)cc2)CC1 | inactive: -6.7% | –
20 | COC(=O)CCC(=O)Nc1ccc(NC(=O)CCC(=O)OC)cc1 | inactive: -15% | –
21 | N#Cc1ccccc1Cn1c(=O)n(-c2ccc(CC(=O)NCc3ccco3)cc2)c(=O)c2sccc21 | inactive: -8.28% | –
22 | Cc1ccc(Cn2ccc(NC(=O)c3cc(-c4cccc(Cl)c4)on3)n2)cc1 | – | inconclusive [inhibitor, partial curve]
23 | COc1ccc(-c2cc(C#N)nc(N3CCN(C)CC3)n2)cc1 | – | inconclusive [inhibitor, partial curve]
24 | CCOC(=O)c1ccc(NS(C)(=O)=O)cc1 | – | inconclusive [inhibitor, partial curve]

Row | SMILES | activity change, negative = inhibition | Potency
25 | COc1cc(/C=C/C(=O)NC(C)CCc2ccccc2)cc(OC)c1OC (configuration not stated) | – | inconclusive [inhibitor, partial curve]
26 | COC(=O)c1ccc(C(=O)OC)c(NC(=S)N2CCCCC2C)c1 (configuration not stated) | – | inconclusive [inhibitor, partial curve]
27 | CCOC(=O)C1(C)/C(=N/Nc2ccccc2Cl)C(=O)C(=O)N1c1ccccc1 (configuration not stated) | – | active: 39.8 µM
28 | Cc1ccc(-c2cc(C(F)(F)F)n3ncc(C(=O)N4CCN(C)CC4)c3n2)cc1 | – | inconclusive [inhibitor, partial curve]
29 | CCN(CC)c1ccc2cc(NC(=O)CCC(=O)O)c(=O)oc2c1 | – | inconclusive [inhibitor, partial curve]
30 | O=C(CSc1nc2ccc(S(=O)(=O)N3CCOCC3)cc2[nH]1)N1CCOCC1 | – | active: 3.55 µM
31 | COc1ccc(C2CC(c3ccc(F)cc3)Nc3nc(N)nn32)cc1OC (configuration not stated) | inactive: -9.35% | –
32 | Cc1cccc(NC(=O)CCCCCN2C(=O)c3ccccc3C2=O)n1 | – | active: 25.1 µM
33 | COc1cc(SC)ccc1C(=O)Nc1ccc(C)cc1C | – | inconclusive [inhibitor, partial curve]
34 | Cc1ccc(-c2cc3nn(-c4ccccc4)c(N)c3c(=O)o2)cc1 | – | inconclusive [inhibitor, partial curve]
35 | CCc1nn(CCCC(=O)N2CCc3ccccc3C2)c(=O)c2cc3occc3n12 | – | active: 31.6 µM
36 | COc1cccc(C2CC(c3cccs3)=NN2C(=O)CSc2nc3ccccc3s2)c1OC (configuration not stated) | – | inconclusive [inhibitor, partial curve]
37 | Cc1oc(-c2cccs2)nc1CSCC(=O)NC1CC1 | – | inconclusive [inhibitor, partial curve]
38 | CCN(CC)CCNc1nc(-c2ccco2)c2c(c1C#N)CC(C)(C)OC2 | – | inconclusive [inhibitor, partial curve]
39 | CCC(=O)/C=C1/Sc2ccc(OC)cc2N1CC | inactive: -12% | –
40 | COc1cc(S(=O)(=O)NCC2CCCO2)ccc1Br (configuration not stated) | inactive: -12.4% | –
41 | CCCn1cnc2c(c1=O)c1nc3ccccc3nc1n2CCc1ccccc1 | – | inconclusive [inhibitor, partial curve]
42 | O=C(/C=C/c1ccccc1)Nc1cccc(S(=O)(=O)Nc2ccccc2F)c1 | – | active: 2 µM
43 | N#Cc1nc(Cc2ccccc2)oc1NCc1ccccc1Cl | inactive: -20.1% | –
44 | O=C(Cn1[nH]c(=O)c2ccccc2c1=O)Nc1ccc(-c2nnc3n2CCCCC3)cc1 | – | active: 3.55 µM
45 | CCOc1cc(S(=O)(=O)N2CCC(c3nc4ccccc4s3)CC2)c(OCC)cc1S(=O)(=O)N1CCCCC1 | inactive: -11.9% | –
46 | COc1ccc(Oc2c(C)oc3c(CN4CCOCC4)c(O)ccc3c2=O)cc1 | – | inconclusive [inhibitor, partial curve]
47 | COC(=O)N1[C@H]2CC[C@@]3(C)C=C(C)O[C@]1(C)C3c1ccccc12 | inactive: -1.78% | –
48 | C#CCSc1nnc(-c2sc3ccccc3c2Cl)o1 | – | inconclusive [inhibitor, partial curve]

Row | SMILES | activity change, negative = inhibition | Potency
49 | Cn1c(=O)[nH]c(=O)c2c1nc(N1CCCCC1)n2CCCSc1nc2ccccc2s1 | – | active: 15.8 µM
50 | OCCCc1nc2n(n1)C(c1ccccc1Cl)C=C(c1cccs1)N2 (configuration not stated) | – | inconclusive [inhibitor, partial curve]
51 | C=CCSc1n[nH]c2nc3c(c(=O)n12)C1(CCCC1)Cc1ccccc1-3 | – | inconclusive [inhibitor, partial curve]
52 | COc1ccc(C(CC(=O)c2ccc(C)cc2)C(C#N)C#N)cc1OC (configuration not stated) | inactive: -13.9% | –
53 | Nc1nonc1C(=O)OCC(=O)N1CCCCC1 | inactive: -5.48% | –
54 | Cc1cccc(NS(=O)(=O)c2ccccc2)n1 | – | inconclusive [inhibitor, partial curve]
55 | CN1CCN(C(=O)/C(=C/c2ccccc2)c2ccccc2)CC1 | – | active: 12.6 µM
56 | O=C1Cc2ccccc2Sc2ccccc21 | – | inconclusive [inhibitor, partial curve]
57 | CC(C)c1ccc(SCc2noc(C(=O)NCC3CCCO3)c2C(=O)O)cc1 (configuration not stated) | – | active: 7.94 µM
58 | CCOC(=O)Nc1nnc(CCc2ccccc2)s1 | – | inconclusive [inhibitor, partial curve]
59 | Nc1ccc2oc(-c3cccc4ccccc34)nc2c1 | – | active: 22.4 µM
60 | Cc1cc(C)nc(Sc2nc(C)nc3c2oc2ccccc23)n1 | – | active: 31.6 µM
61 | CCOC(=O)N1CCC(NC(=O)CSCc2nc(-c3sccc3C)oc2C)CC1 | – | inconclusive [inhibitor, partial curve]
62 | Cc1cccc(C(C)Nc2ccc([N+](=O)[O-])cn2)c1 (configuration not stated) | – | inconclusive [inhibitor, partial curve]
63 | CCOC(=O)N1CCN(C(=O)c2cc(-c3ccc(OCC)cc3)nc3ccccc23)CC1 | – | inconclusive [inhibitor, partial curve]
64 | COc1cc(OC)cc(-n2nnnc2SCC(=O)N2CCCc3ccccc32)c1 | inactive: -17.6% | –
65 | CCn1c(-c2cc(Br)cc(OC)c2O)nc2cc(S(=O)(=O)N(C)C)ccc21 | – | inconclusive [inhibitor, single point]
66 | CCOC(=O)N1CCN(c2nc(C)cc(C(F)(F)F)n2)CC1 | – | inconclusive [inhibitor, single point]
67 | O=C(CCl)c1ccc(Cc2ncc(C(F)(F)F)cc2Cl)s1 | inactive: -22% | –
68 | CN(C)c1ccc(/C=C2/C(=O)N(c3ccc([N+](=O)[O-])cc3)N=C2N2CCOCC2)cc1 | inactive: -9.98% | –
69 | Cc1ccc2nc(SC(C)C(=O)Nc3cccc([N+](=O)[O-])c3)[nH]c2c1 (configuration not stated) | – | inconclusive [inhibitor, partial curve]
70 | C=CC1=C(C)C2=NC1=CC1=NC(=CC3=NC(=CC4=NC(=C2)C(C)=C4CCC(=O)O)C(CCC(=O)O)=C3C)C(C=C)=C1C.[Zn] | – | inconclusive [inhibitor, partial curve]
71 | COC(=O)C1=C(C)N(CCc2cc(OC)c(OC)c(OC)c2)C(=O)N[C@H]1c1ccccc1 | inactive: -2.26% | –
72 | COc1cc(C(=O)Nc2cccc(-c3nc4cc(C)cc(C)c4o3)c2)cc(OC)c1OC | – | inconclusive [inhibitor, single point]
